In the RNAGym collection of RNA variant scans (doi:10.7554/elife.90254):
Read counts are not given, so values of variants with three or more changes are uncertain.

B1: LINE1-full (parent)
chain: UACGUAGGUGGUUUUCCCCUGAUAGUGCUAAGGGGGCCUGGAAGUUUGGACUGGGCAGAGCUCAACACAGCGUGGCAAAGUGGCUGUGGCUAGACUGCCUCUCUGGAUUCCUCGUCACUCAGCAGGGCAUCUCUGAGAGAAAUGCC

Variants of: B1
Assay: self-cleavage, relative activity (ratio to wild type); higher = more cleavage; in vitro, sequencing; the parent is a self-cleaving ribozyme

| Variant | self-cleavage |
| --- | --- |
| U14A G34U A142U | 1.2 |
| U14A G36C U96C | 0.18 |
| U14A G58U G139A | 0.06 |
| U14A U15A C61U A78C A107G | 0.12 |
| U14A U15C A77U C113G A142G | 1.01 |
| U14A U15C G48A | 0.18 |
| U14A U15C U52A U143C | 0.86 |
| U14A U20C G34U U39C U115C | 0 |
| U14A U39A A43G U47C | 0.97 |
| U14A U39C U52C C63U | 0.01 |
| U14A U45C U46C U85A U134C A136G | 0 |
| U14A U46C A50G | 0.59 |
| U14A U46C A64G | 1.31 |
| U14A U46C G48U A50G C51A U52C G53U C76U U102C | 2.08 |
| U14A U47A A65G | 0.05 |
| U14A U62C A78U A141G | 0.07 |
| U14A U62C U112G | 0 |
| U14A U73A U109G | 0.31 |
| U14A U73C C95U A121G | 0.14 |
| U14A U91C U102C | 0.71 |
| U14A U96A C118U | 0.05 |
| U14A U96C U134A | 0 |
| U14A U102C A141G | 0.89 |
| U14A U109C A138G | 0.68 |

| Variant | self-cleavage |
| --- | --- |
| U14C A22G G54A U85C | 0.13 |
| U14C A22G U47A | 1.33 |
| U14C A22G U52A A57G U115C A141G | 0 |
| U14C A22G U96C | 0 |
| U14C A22G U100C | 0.97 |
| U14C A22U A117U | 0.28 |
| U14C A22U G55A | 0.2 |
| U14C A22U U46C U112C A117G | 2.12 |
| U14C A22U U104A U108C A138G | 1.69 |
| U14C A24C A140G | 1.31 |
| U14C A24G A31G A92G | 1.02 |
| U14C A24G C146A | 1.34 |
| U14C A24G U52C U102C | 1.84 |
| U14C A24G U96C U143G | 0 |
| U14C A24U U46C U104A U143C | 0.45 |
| U14C A30C A59U | 0.44 |
| U14C A30G A69G A129C | 0 |
| U14C A30G A77G U100C | 1.53 |
| U14C A30G G126U | 0.81 |
| U14C A30G U85A | 0.27 |
| U14C A30G U85A A136C | 0.09 |
| U14C A30U U39C A136G | 0.92 |
| U14C A30U U87C U96C | 0 |
| U14C A30U U102C | 1.34 |

| Variant | self-cleavage |
| --- | --- |
| U14C A31G U39A A57U A77U U130C | 0.06 |
| U14C A31U A57U U85A A129G | 0.19 |
| U14C A31U A79G | 1.81 |
| U14C A31U U81C A140G | 0.86 |
| U14C A42G A69G C111U | 0.25 |
| U14C A42G A78G | 2.66 |
| U14C A42G A92G A117U U132C | 0.28 |
| U14C A42G G105A | 1.68 |
| U14C A42G U87G U96A | 0.11 |
| U14C A42U A59G | 0.17 |
| U14C A42U A65G U115C | 0 |
| U14C A43G A65G | 0.26 |
| U14C A43G A129C | 0.84 |
| U14C A43G G97A A124C | 0.09 |
| U14C A43G U81G | 0.63 |
| U14C A43G U109A A141G | 1.18 |
| U14C A43G U134G | 1.65 |
| U14C A43U U47C | 1.28 |
| U14C A50G A65U A79G U81A | 0 |
| U14C A50G A78G | 0.75 |
| U14C A50G C56U | 0.18 |
| U14C A50G G83A | 0.45 |
| U14C A50G U100C | 1.31 |
| U14C A50U A64G A77G | 0.27 |

| Variant | self-cleavage |
| --- | --- |
| U14C A50U G105A A117G A124U G125A G135A | 1.31 |
| U14C A57G A67C A79G A141G | 0 |
| U14C A57G A107G U143C | 0.38 |
| U14C A57G A107U | 0.34 |
| U14C A57G G97A U119C A121C | 0.13 |
| U14C A57G U109C A124U A142G | 0.21 |
| U14C A57U U73A | 0.08 |
| U14C A57U U104A | 0.04 |
| U14C A59G U96A U104A | 0.13 |
| U14C A59G U134C | 0 |
| U14C A59U U102C | 1.03 |
| U14C A64G A77U U134C A142G | 0.32 |
| U14C A64G A121G | 0.35 |
| U14C A64U A67G A79U | 0.21 |
| U14C A64U A67G U119C | 0.15 |
| U14C A64U A69G U109C A117U | 0.08 |
| U14C A64U A69G U143C | 0.28 |
| U14C A64U U91C | 0.12 |
| U14C A65G A124U U130A C131A | 0.19 |
| U14C A65G A129G | 0.17 |
| U14C A65G G72A U73A U109C | 0.06 |
| U14C A65G G137U A141G | 0.1 |
| U14C A65G U130C | 0.15 |
| U14C A67C U132G A138G | 1.23 |

| Variant | self-cleavage |
| --- | --- |
| U14C A67G A138G | 0.78 |
| U14C A67U A69G C99U U112C U115C | 0 |
| U14C A67U U96C U132C | 0 |
| U14C A69G C146U | 0.28 |
| U14C A69G U134A U143C | 0 |
| U14C A69U A77G G93A | 0 |
| U14C A77G U85G A140G A142C | 0 |
| U14C A77G U96A A140G | 0.14 |
| U14C A77U A138G A140G | 1.29 |
| U14C A77U C103A | 1.61 |
| U14C A78G A92G | 0.29 |
| U14C A78G A136G | 1.17 |
| U14C A78G A138G | 0.94 |
| U14C A78G U87A | 0.06 |
| U14C A78G U104A U109C | 0.46 |
| U14C A78U U143C | 0.61 |
| U14C A79C A121U | 1.69 |
| U14C A79G A121G | 1.64 |
| U14C A79G A129G | 1.9 |
| U14C A79G C95U | 0.2 |
| U14C A92U U109A A140G | 0.51 |
| U14C A94G A117U A141G | 0.44 |
| U14C A94G U109A | 0.14 |
| U14C A94G U130C | 0 |

| Variant | self-cleavage |
| --- | --- |
| U14C A94G U132C | 0.31 |
| U14C A107G G122A G139A | 1.56 |
| U14C A107G U115A U119C A142G | 0 |
| U14C A117G A136U | 0.88 |
| U14C A117G A142G | 2.24 |
| U14C A117U U130C | 0.95 |
| U14C A121U A124U | 1.14 |
| U14C A124U U134A | 0.37 |
| U14C C17A A22G C61U U132C | 0.2 |
| U14C C18A C63U | 0.69 |
| U14C C18A C71U | 0.86 |
| U14C C18A U102C A142G C145U | 0.66 |
| U14C C19A G126A A140G | 0.96 |
| U14C C19U A22G U26A U73C | 0.66 |
| U14C C19U C63U U104C | 0.79 |
| U14C C37U U46C G58A | 0.08 |
| U14C C37U U87C | 0.17 |
| U14C C38G U45A A64G | 0.39 |
| U14C C38U U46C U119A A136G | 1.18 |
| U14C C56A A57G U91A C113U A121C | 0.07 |
| U14C C63A U85C | 0 |
| U14C C66U U96C A117C | 0.07 |
| U14C C71U G106U | 0.19 |
| U14C C76U A94U | 0.4 |

| Variant | self-cleavage |
| --- | --- |
| U14C C84A A121G A141G | 0 |
| U14C C90U A124G A142G | 0.24 |
| U14C C113U C116U | 1.59 |
| U14C C118U A138G | 0.89 |
| U14C C123U U132A | 1.22 |
| U14C G21U U46C A79U U87A | 0.06 |
| U14C G25A A64G | 0.37 |
| U14C G25A A67U A124C A129G U130C | 0 |
| U14C G25C A42G A64U A65U A78G U96C C113U U115C | 0.05 |
| U14C G27A A64C C84U U85C | 0 |
| U14C G27A U46C A140G | 0.8 |
| U14C G32A A43G | 1.39 |
| U14C G32A A69U A77G A121G | 0.24 |
| U14C G32A G34A A79G C101U | 0.76 |
| U14C G32A U39G U112A | 1.71 |
| U14C G32A U47C A69G U143A | 0 |
| U14C G32A U62C U100C | 0.16 |
| U14C G32C U47C A117G A142G | 0.54 |
| U14C G33C U47C A69U | 0 |
| U14C G33U A50G C51A U100C A129C | 1.41 |
| U14C G33U U96C | 0.22 |
| U14C G34A U81C U108C | 1.74 |
| U14C G36A A92G U102C | 0.16 |
